Most values come without repeats; read them as rough.
What was measured:
CHO-K1 [1] = assay: micronucleus frequency (% of nucleated events); higher = more micronuclei (genotoxic)
CHO-K1 [2] = assay: relative survival (nuclei to bead ratio vs DMSO control) (% of vehicle control); higher = more surviving cells
Method: (§1)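 Flow-cytometric in vitro micronucleus assay (Litron MicroFlow) in CHO-K1 cells in 96-well plates, 19 concentrations (4.5-200 µM, n=1 per concentration). Without S9, cells were exposed for 24 h and sampled at 48 h. With Aroclor 1254-induced rat liver S9, cells were exposed for 3-4 h and sampled at 27-28 h. Read-outs are %MN and %hypodiploid nuclei relative to nucleated events, and relative survival as the nuclei-to-bead ratio versus the 1% DMSO vehicle control (x100).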

CHO-K1 [3] = assay: hypodiploid nuclei frequency (% of nucleated events); higher = more hypodiploid events (aneugenic)
Method: as §1
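For hypodiploid nuclei frequency (% of nucleated events) in this document: hypodiploid nuclei gated on a flow cytometer with 488 nm excitation after SYTOX Green staining, cultures at 37 °C, positive controls vinblastine without S9 and cyclophosphamide with S9.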
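For micronucleus frequency (% of nucleated events) in this document: cells lysed with nuclei stained by SYTOX Green, then micronucleus-gated events counted against nucleated events by flow cytometry with 488 nm excitation.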
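For relative survival (nuclei to bead ratio vs DMSO control) in this document: Lysed-cell nuclei stained with SYTOX Green and counted against counting beads by flow cytometry at 488 nm excitation, with vinblastine (no S9) and cyclophosphamide (plus S9) as positive controls.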

Cc1cc(N=Nc2ccccc2C)ccc1N [2-Amino-5-azotoluene]
Details | hypodiploid nuclei frequency, CHO-K1 [3] [%] | micronucleus frequency, CHO-K1 [1] [%] | relative survival, CHO-K1 [2]
concentration: 4.5 (µM), S9 metabolic activation: with S9, exposure time: 3-4 hours | 0.26 | 1.36 | 118
concentration: 4.5 (µM), S9 metabolic activation: without S9, exposure time: 24 hours | 0.6 | 1.68 | 111
concentration: 5.63 (µM), S9 metabolic activation: with S9, exposure time: 3-4 hours | 0.2 | 1.36 | 103
concentration: 5.63 (µM), S9 metabolic activation: without S9, exposure time: 24 hours | 0.74 | 1.8 | 105
concentration: 7.04 (µM), S9 metabolic activation: with S9, exposure time: 3-4 hours | 0.24 | 1.3 | 110
concentration: 7.04 (µM), S9 metabolic activation: without S9, exposure time: 24 hours | 0.6 | 1.38 | 101
concentration: 8.8 (µM), S9 metabolic activation: with S9, exposure time: 3-4 hours | 0.23 | 1.3 | 111
concentration: 8.8 (µM), S9 metabolic activation: without S9, exposure time: 24 hours | 0.7 | 1.46 | 120
concentration: 11 (µM), S9 metabolic activation: with S9, exposure time: 3-4 hours | 0.23 | 1.36 | 101
concentration: 11 (µM), S9 metabolic activation: without S9, exposure time: 24 hours | 0.56 | 1.66 | 99.2
concentration: 13.7 (µM), S9 metabolic activation: with S9, exposure time: 3-4 hours | 0.19 | 1.36 | 107
concentration: 13.7 (µM), S9 metabolic activation: without S9, exposure time: 24 hours | 0.78 | 2.12 | 116
concentration: 17.2 (µM), S9 metabolic activation: with S9, exposure time: 3-4 hours | 0.21 | 1.38 | 105
concentration: 17.2 (µM), S9 metabolic activation: without S9, exposure time: 24 hours | 0.8 | 2.5 | 95.7
concentration: 21.5 (µM), S9 metabolic activation: with S9, exposure time: 3-4 hours | 0.26 | 1.16 | 103
concentration: 21.5 (µM), S9 metabolic activation: without S9, exposure time: 24 hours | 0.62 | 2.42 | 111
concentration: 26.8 (µM), S9 metabolic activation: with S9, exposure time: 3-4 hours | 0.29 | 2.02 | 106
concentration: 26.8 (µM), S9 metabolic activation: without S9, exposure time: 24 hours | 1.18 | 1.64 | 84.4
concentration: 33.6 (µM), S9 metabolic activation: with S9, exposure time: 3-4 hours | 0.29 | 1.65 | 101
concentration: 33.6 (µM), S9 metabolic activation: without S9, exposure time: 24 hours | 0.86 | 1.56 | 109
concentration: 41.9 (µM), S9 metabolic activation: with S9, exposure time: 3-4 hours | 0.28 | 2.04 | 98.8
concentration: 41.9 (µM), S9 metabolic activation: without S9, exposure time: 24 hours | 1.16 | 2.1 | 97
concentration: 52.4 (µM), S9 metabolic activation: with S9, exposure time: 3-4 hours | 0.34 | 1.89 | 104
concentration: 52.4 (µM), S9 metabolic activation: without S9, exposure time: 24 hours | 1.28 | 2.02 | 97
concentration: 65.5 (µM), S9 metabolic activation: with S9, exposure time: 3-4 hours | 0.31 | 1.83 | 103
concentration: 65.5 (µM), S9 metabolic activation: without S9, exposure time: 24 hours | 1.14 | 1.94 | 92.5
concentration: 81.9 (µM), S9 metabolic activation: with S9, exposure time: 3-4 hours | 0.24 | 1.46 | 102
concentration: 81.9 (µM), S9 metabolic activation: without S9, exposure time: 24 hours | 1.72 | 2.72 | 80.4
concentration: 102 (µM), S9 metabolic activation: with S9, exposure time: 3-4 hours | 0.49 | 1.73 | 89.9
concentration: 102 (µM), S9 metabolic activation: without S9, exposure time: 24 hours | 1.72 | 2 | 89.2
concentration: 128 (µM), S9 metabolic activation: with S9, exposure time: 3-4 hours | 0.28 | 1.7 | 104
concentration: 128 (µM), S9 metabolic activation: without S9, exposure time: 24 hours | 1.8 | 2.14 | 71.3
concentration: 160 (µM), S9 metabolic activation: with S9, exposure time: 3-4 hours | 0.29 | 1.33 | 89
concentration: 160 (µM), S9 metabolic activation: without S9, exposure time: 24 hours | 1.5 | 1.98 | 70.2
concentration: 200 (µM), S9 metabolic activation: with S9, exposure time: 3-4 hours | 0.35 | 2.45 | 58.5
concentration: 200 (µM), S9 metabolic activation: without S9, exposure time: 24 hours | 1.58 | 1.78 | 51.2

COc1ccc(C)cc1N [2-Methoxy-5-methylaniline]
Details | hypodiploid nuclei frequency, CHO-K1 [3] [%] | micronucleus frequency, CHO-K1 [1] [%] | relative survival, CHO-K1 [2]
concentration: 4.5 (µM), S9 metabolic activation: with S9, exposure time: 3-4 hours | 0.34 | 1.12 | 142
concentration: 4.5 (µM), S9 metabolic activation: without S9, exposure time: 24 hours | 0.52 | 1.5 | 104
concentration: 5.63 (µM), S9 metabolic activation: with S9, exposure time: 3-4 hours | 0.16 | 0.86 | 138
concentration: 5.63 (µM), S9 metabolic activation: without S9, exposure time: 24 hours | 0.7 | 2.72 | 103
concentration: 7.04 (µM), S9 metabolic activation: with S9, exposure time: 3-4 hours | 0.2 | 1.16 | 137
concentration: 7.04 (µM), S9 metabolic activation: without S9, exposure time: 24 hours | 0.64 | 2.52 | 96.3
concentration: 8.8 (µM), S9 metabolic activation: with S9, exposure time: 3-4 hours | 0.3 | 1.5 | 151
concentration: 8.8 (µM), S9 metabolic activation: without S9, exposure time: 24 hours | 0.56 | 2.54 | 120
concentration: 11 (µM), S9 metabolic activation: with S9, exposure time: 3-4 hours | 0.22 | 1.08 | 123
concentration: 11 (µM), S9 metabolic activation: without S9, exposure time: 24 hours | 1 | 2.08 | 110
concentration: 13.7 (µM), S9 metabolic activation: with S9, exposure time: 3-4 hours | 0.18 | 1 | 159
concentration: 13.7 (µM), S9 metabolic activation: without S9, exposure time: 24 hours | 0.66 | 1.88 | 123
concentration: 17.2 (µM), S9 metabolic activation: with S9, exposure time: 3-4 hours | 0.18 | 1.16 | 165
concentration: 17.2 (µM), S9 metabolic activation: without S9, exposure time: 24 hours | 0.92 | 2.06 | 114
concentration: 21.5 (µM), S9 metabolic activation: with S9, exposure time: 3-4 hours | 0.16 | 1.2 | 150
concentration: 21.5 (µM), S9 metabolic activation: without S9, exposure time: 24 hours | 0.94 | 2.42 | 105
concentration: 26.8 (µM), S9 metabolic activation: with S9, exposure time: 3-4 hours | 0.3 | 1.48 | 128
concentration: 26.8 (µM), S9 metabolic activation: without S9, exposure time: 24 hours | 0.76 | 2.4 | 91.2
concentration: 33.6 (µM), S9 metabolic activation: with S9, exposure time: 3-4 hours | 0.2 | 1.18 | 137
concentration: 33.6 (µM), S9 metabolic activation: without S9, exposure time: 24 hours | 0.8 | 2.6 | 114
concentration: 41.9 (µM), S9 metabolic activation: with S9, exposure time: 3-4 hours | 0.26 | 1.26 | 134
concentration: 41.9 (µM), S9 metabolic activation: without S9, exposure time: 24 hours | 0.66 | 2.06 | 100
concentration: 52.4 (µM), S9 metabolic activation: with S9, exposure time: 3-4 hours | 0.1 | 1.06 | 123
concentration: 52.4 (µM), S9 metabolic activation: without S9, exposure time: 24 hours | 0.92 | 2.82 | 84.6
concentration: 65.5 (µM), S9 metabolic activation: with S9, exposure time: 3-4 hours | 0.28 | 1.46 | 122
concentration: 65.5 (µM), S9 metabolic activation: without S9, exposure time: 24 hours | 0.96 | 4.12 | 101
concentration: 81.9 (µM), S9 metabolic activation: with S9, exposure time: 3-4 hours | 0.26 | 1.04 | 136
concentration: 81.9 (µM), S9 metabolic activation: without S9, exposure time: 24 hours | 1.1 | 2.7 | 91.2
concentration: 102 (µM), S9 metabolic activation: with S9, exposure time: 3-4 hours | 0.28 | 1.06 | 120
concentration: 102 (µM), S9 metabolic activation: without S9, exposure time: 24 hours | 1.26 | 3.44 | 87.4
concentration: 128 (µM), S9 metabolic activation: with S9, exposure time: 3-4 hours | 0.16 | 0.86 | 132
concentration: 128 (µM), S9 metabolic activation: without S9, exposure time: 24 hours | 1.42 | 3.16 | 97.8
concentration: 160 (µM), S9 metabolic activation: with S9, exposure time: 3-4 hours | 0.24 | 1.34 | 130
concentration: 160 (µM), S9 metabolic activation: without S9, exposure time: 24 hours | 1.56 | 3.26 | 99.8
concentration: 200 (µM), S9 metabolic activation: with S9, exposure time: 3-4 hours | 0.2 | 1.12 | 155
concentration: 200 (µM), S9 metabolic activation: without S9, exposure time: 24 hours | 2.08 | 3 | 97.8

— the supplement of paper PMC9151546
